# Source: the supplement of paper PMC11417369
# ± gives the standard deviation of the averaged measurements. The list shows a part of the results.
# Test system: PfAP2-I AP2 domain 3 (GST-tagged)
# Assay: gcPBM binding intensity (ln(normalized median fluorescence intensity)); higher = stronger DNA binding
# Method in brief: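 Alexa488 anti-GST antibody, scanned at 488 nm, detected GST-tagged P. falciparum DNA-binding domains that had been expressed in E. coli and incubated for 1 h on an Agilent 4 × 180k array. The array carried primer-extended double-stranded 36-bp intergenic genomic probes and negative controls. Binding intensity is the highest Masliner-normalised natural-log median intensity across replicate spots of either orientation of each probe.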
row,Sequence,gcPBM binding intensity (ln)
1,TAAATAAATTTATACACACACACACCCATATATATA [CACACA_site849],8.43 ± 0.61
2,AAAAAATCAAAACACACACACACACTAGAAAAAAAA [CACACA_site4909],7.92 ± 0.3
3,ATTTTATCAAGAGGAAGTACATTACCCCATGAAAAA [XGTACX_site8295],7.99 ± 0.71
4,AATAAAAATATATCCACACACATATATATATCTGTA [CACACA_site4481],7.75 ± 0.51
5,TATATTATATTTTTATGTACATATATGTTTTTTTTT [XGTACX_site8239],7.68 ± 0.47
6,CACACCCACAGACACACACACACATATATAATATAT [CACACA_site594],8.35 ± 0.18
7,AAAAAAAAAAAAAAAGCACACACCAATGAGCAGCTT [CACACA_site1845],9.24 ± 0.47
8,ATATGTTACAAAGATTGTACTTATTAAGGAGCGACT [XGTACX_site5094],7.91 ± 0.44
9,TAATATATGTATTATGCATGTGAATAAGCACTTGAT [TGCATGCA_site848],9.03 ± 0.4
10,TATAATCATATACACGCATGTATAAAATTTAATACT [TGCATGCA_site700],7.62 ± 0.54
11,ACATTCAAGCGTAATTGTACATACATATATATATAT [XGTACX_site8876],9.195 ± 0.021
12,ATGTATATAAATAGTAGTACATTATTTCACACTGTA [XGTACX_site2061],7.88 ± 0.36
13,TATTGTATCCTTAATGCATGCACCAAATAAAAAAAG [TGCATGCA_site541],10.1 ± 0.2
14,ACCATATGTACATTTTTTTTTTTTTTTTTTTTTTTT [CACACA_negctrl_site1188],9.735 ± 0.092
15,ATATATATATAATGTAGTACTATTTAATAATAAGCC [XGTACX_site1263],8.93 ± 0.42
16,AATAATTTGGTCTTATCAAAAATTAAAAATAAATAA [XGTACX_negctrl_site430],7.5 ± 0.46
17,AAAAAACATTTTCGAGTGCATGTTTTGCTTTATTTC,8.46 ± 0.3
18,TTAAATGTTAAAAGGGTGCTATTATATAAATGAAAA [GTGCAC_site9882],9.7 ± 0.17
19,TTCATATGTTTTAACACACACGCATATATTATATAT [CACACA_site2007],8.12 ± 0.5
20,AAAAAAATTTGGCATACACACACACCCCCACCCACA [CACACA_site8094],9.38 ± 0.23
21,GTTTTATATTATATATGTACATATCCATGAGATATA [XGTACX_site3328],8.09 ± 0.7
22,TTTAACTTTTATATAACACACATATTGTAATTATGT [CACACA_site6486],7.92 ± 0.33
23,ATGACAATTCAAAATTGTACATAAAAAAAAAAAAAA [XGTACX_site7560],7.91 ± 0.84
24,TGTAAACATAAGATATGTACTTATATCATATTATAA [XGTACX_site6883],7.44 ± 0.34
25,TAAAAATTACTATATGAACACACATGATTAGATATA [CACACA_site9012],7.51 ± 0.54
